Test results published in the supplement of paper PMC8728848.
Some of the results follow.

Key:
Experiment in all cases: glycan array binding signal (z-score within array); higher = stronger binding
Conditions in all cases: glycan notation: IUPAC condensed, linker removed
[1] = target: Gal(b1-4)GlcNAc(b1-3)Gal(b1-4)[Fuc(a1-3)]GlcNAc(b1-3)Gal(b1-4)[Fuc(a1-3)]GlcNAc
How it was run: (§1)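 The binding signal is a Z-score computed within each array and averaged over linkers. Arrays of the same protein sequence at different concentrations or buffers were also averaged together. Data originate from 3228 arrays in the Consortium for Functional Glycomics database, kept only where the protein sequence was available.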

[2] = target: Gal(b1-4)GlcNAc(b1-3)GalNAc
How it was run: as §1

[3] = target: Gal(b1-4)GlcNAc(b1-3)[Fuc(a1-3)GlcNAc(b1-6)]Gal(b1-4)Glc
How it was run: as §1

[4] = target: Gal(b1-4)GlcNAc(b1-3)[Gal(b1-4)GlcNAc(b1-6)]Gal(b1-4)GlcNAc
How it was run: as §1

[5] = target: Gal(b1-4)GlcNAc(b1-3)[Gal(b1-4)GlcNAc(b1-6)]GalNAc
How it was run: as §1

[6] = target: Gal(b1-4)GlcNAc(b1-3)[GlcNAc(b1-6)]Gal(b1-4)GlcNAc
How it was run: as §1

[7] = target: Gal(b1-4)GlcNAc(b1-6)Gal(b1-4)GlcNAc
How it was run: as §1

[8] = target: Gal(b1-4)GlcNAc(b1-6)GalNAc
How it was run: as §1

[9] = target: Gal(b1-4)GlcNAc(b1-6)[Gal(b1-3)]GalNAc
How it was run: as §1

[10] = target: Gal(b1-4)GlcNAc(b1-6)[Gal(b1-4)GlcNAc(b1-3)]GalNAc
How it was run: as §1

Gal(b1-4)GlcNAc6P = target: Gal(b1-4)GlcNAc6P
How it was run: as §1

Gal(b1-6)Gal = target: Gal(b1-6)Gal
How it was run: as §1

Gal3S(b1-3)GalNAc = target: Gal3S(b1-3)GalNAc
How it was run: as §1

Gal3S(b1-3)GlcNAc = target: Gal3S(b1-3)GlcNAc
How it was run: as §1

[11] = target: Gal3S(b1-3)[Fuc(a1-4)]GlcNAc
How it was run: as §1

Gal3S(b1-4)Glc = target: Gal3S(b1-4)Glc
How it was run: as §1

Gal3S(b1-4)Glc6S = target: Gal3S(b1-4)Glc6S
How it was run: as §1

Gal3S(b1-4)GlcNAc = target: Gal3S(b1-4)GlcNAc
How it was run: as §1

Gal3S(b1-4)GlcNAc6S = target: Gal3S(b1-4)GlcNAc6S
How it was run: as §1

[12] = target: Gal3S(b1-4)[Fuc(a1-3)]Glc
How it was run: as §1

[13] = target: Gal3S(b1-4)[Fuc(a1-3)]Glc6S
How it was run: as §1

[14] = target: Gal3S(b1-4)[Fuc(a1-3)]GlcNAc
How it was run: as §1

[15] = target: Gal3S(b1-4)[Fuc(a1-3)]GlcNAc6S
How it was run: as §1

Gal3S4S(b1-4)GlcNAc = target: Gal3S4S(b1-4)GlcNAc
How it was run: as §1

Gal3S6S(b1-4)GlcNAc = target: Gal3S6S(b1-4)GlcNAc
How it was run: as §1

Gal3S6S(b1-4)GlcNAc6S = target: Gal3S6S(b1-4)GlcNAc6S
How it was run: as §1

Gal4S(b1-4)GlcNAc = target: Gal4S(b1-4)GlcNAc
How it was run: as §1

Gal4S6S(b1-4)GlcNAc = target: Gal4S6S(b1-4)GlcNAc
How it was run: as §1

Gal6P(b1-4)GlcNAc = target: Gal6P(b1-4)GlcNAc
How it was run: as §1

Gal6S(b1-3)GlcNAc = target: Gal6S(b1-3)GlcNAc
How it was run: as §1

B1: Siglec-F (Mus musculus), Q920G3 (protein)
chain: MRWAWLLPLLWAGCLATDGYSLSVTGSVTVQEGLCVFVACQVQYPNSKGPVFGYWFREGANIFSGSPVATNDPQRSVLKEAQGRFYLMGKENSHNCSLDIRDAQKIDTGTYFFRLDGSVKYSFQKSMLSVLVIALTEVPNIQVTSTLVSGNSTKLLCSVPWACEQGTPPIFSWMSSALTSLGHRTTLSSELNLTPRPQDNGTNLTCQVNLPGTGVTVERTQQLSVIYAPQKMTIRVSWGDDTGTKVLQSGASLQIQEGESLSLVCMADSNPPAVLSWERPTQKPFQLSTPAELQLPRAELEDQGKYICQAQNSQGAQTASVSLSIRSLLQLLGPSCSFEGQGLHCSCSSRAWPAPSLRWRLGEGVLEGNSSNGSFTVKSSSAGQWANSSLILSMEFSSNHRLSCEAWSDNRVQRATILLVSGPKVSQAGKSETSRGTVLGAIWGAGLMALLAVCLCLIFFTVKVLRKKSALKVAATKGNHLAKNPASTINSASITSSNIALGYPIQGHLNEPGSQTQKEQPPLATVPDTQKDEPELHYASLSFQGPMPPKPQNTEAMKSVYTEIKIHKC
glycan array binding signal (z-score) [1]: -0.11 | glycan array binding signal (z-score) [2]: -0.123 | glycan array binding signal (z-score) [3]: -0.166 | glycan array binding signal (z-score) [4]: -0.06 | glycan array binding signal (z-score) [5]: -0.09 | glycan array binding signal (z-score) [6]: -0.111 | glycan array binding signal (z-score) [7]: -0.096 | glycan array binding signal (z-score) [8]: -0.103 | glycan array binding signal (z-score) [9]: -0.124 | glycan array binding signal (z-score) [10]: -0.025 | glycan array binding signal (z-score) (Gal(b1-4)GlcNAc6P): -0.111 | glycan array binding signal (z-score) (Gal(b1-6)Gal): -0.116 | glycan array binding signal (z-score) (Gal3S(b1-3)GalNAc): -0.121 | glycan array binding signal (z-score) (Gal3S(b1-3)GlcNAc): -0.108 | glycan array binding signal (z-score) [11]: -0.133 | glycan array binding signal (z-score) (Gal3S(b1-4)Glc): -0.121 | glycan array binding signal (z-score) (Gal3S(b1-4)Glc6S): -0.097 | glycan array binding signal (z-score) (Gal3S(b1-4)GlcNAc): -0.125 | glycan array binding signal (z-score) (Gal3S(b1-4)GlcNAc6S): -0.09 | glycan array binding signal (z-score) [12]: -0.09 | glycan array binding signal (z-score) [13]: 0.156 | glycan array binding signal (z-score) [14]: -0.142 | glycan array binding signal (z-score) [15]: -0.142 | glycan array binding signal (z-score) (Gal3S4S(b1-4)GlcNAc): -0.113 | glycan array binding signal (z-score) (Gal3S6S(b1-4)GlcNAc): -0.115 | glycan array binding signal (z-score) (Gal3S6S(b1-4)GlcNAc6S): -0.104 | glycan array binding signal (z-score) (Gal4S(b1-4)GlcNAc): -0.113 | glycan array binding signal (z-score) (Gal4S6S(b1-4)GlcNAc): -0.113 | glycan array binding signal (z-score) (Gal6P(b1-4)GlcNAc): -0.144 | glycan array binding signal (z-score) (Gal6S(b1-3)GlcNAc): -0.099
